# Results taken from publication PMC7537107 (Journal of neurochemistry, 2019).
# Target: HA-tagged spinophilin F451A mutant (human, UniProt Q96SB3 1-817, F451A)
# Test: co-IP
# Chain of UniProt Q96SB3 (Q96SB3 whole entry F451A): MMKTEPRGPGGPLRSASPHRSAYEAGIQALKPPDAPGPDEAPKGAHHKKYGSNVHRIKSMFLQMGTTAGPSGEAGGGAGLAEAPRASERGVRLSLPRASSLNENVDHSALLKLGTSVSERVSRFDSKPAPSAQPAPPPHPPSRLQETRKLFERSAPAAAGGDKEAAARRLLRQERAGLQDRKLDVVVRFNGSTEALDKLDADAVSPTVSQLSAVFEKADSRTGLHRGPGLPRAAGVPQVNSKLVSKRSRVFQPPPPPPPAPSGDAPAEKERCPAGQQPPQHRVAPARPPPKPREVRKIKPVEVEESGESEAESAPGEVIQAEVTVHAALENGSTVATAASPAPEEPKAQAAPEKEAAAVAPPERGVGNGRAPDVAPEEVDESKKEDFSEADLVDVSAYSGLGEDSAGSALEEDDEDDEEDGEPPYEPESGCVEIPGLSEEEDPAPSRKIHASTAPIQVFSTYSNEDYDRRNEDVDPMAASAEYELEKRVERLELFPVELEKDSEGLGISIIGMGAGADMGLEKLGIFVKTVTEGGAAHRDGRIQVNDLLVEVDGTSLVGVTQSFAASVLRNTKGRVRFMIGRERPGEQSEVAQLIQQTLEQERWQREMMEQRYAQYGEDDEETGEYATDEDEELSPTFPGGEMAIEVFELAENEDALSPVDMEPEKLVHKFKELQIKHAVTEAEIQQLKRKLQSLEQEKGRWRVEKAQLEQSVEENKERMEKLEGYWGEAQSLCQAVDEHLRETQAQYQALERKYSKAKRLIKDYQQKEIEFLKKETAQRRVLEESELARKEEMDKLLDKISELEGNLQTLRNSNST
binder,measurement,value
Myc-tagged PP1γ1 (enzyme) not shown,co-IP of PP1γ1 with F451A spinophilin as ratio to WT spinophilin,0.379 ratio to WT
